Source: PubChem BioAssay AID1347071 (National Center for Advancing Translational Sciences (NCATS), 2019)
In all, about 410,000 compounds went through this assay and about 260 (0.063%) were called active. The shares of active, inactive and inconclusive entries below differ from those in the screen. The call rests on the fitted dose curve; in most records, active means well fitted activation curve with a large enough effect; inconclusive means small, poorly fitted or top-dose-only effect; inactive means no such curve, though single readings can be large or run the other way. Potencies of inconclusive entries are left out as doubtful fits.

assay: qHTS for compounds that reverse cellular toxicity of Amyloid beta (A-beta) peptide in yeast: Primary Screen; details: yeast expressing A-beta42, growth rescue, OD600, 48 h; growth rescue: at 46.1 µM (top of the series), 0% DMSO, 100% iron-clioquinol control; further: nearly all actives have a fitted effect of over 55% in size
Excerpt: The A-beta peptide is produced by the processing of the amyloid precursor protein (APP) by two proteases, beta and gamma secretases. […] A-beta42 is regarded as the most amyloidogenic form due to its hydrophobicity; however, precisely how A-beta42 induces neurotoxicity is unclear. To understand further this biology and its potential therapeutic implications for human neurodegenerative disease, a quantitative high-throughput screen for compounds that reverse the cellular toxicity of the A-beta peptide was developed. A yeast based screen was used because it recapitulates the salient feature of protein mis-folding disorder accurately. This cell-based phenotypic screen provides a significant, unbiased advantage by letting the compounds and models inform us which proteins or pathways are most relevant. The ideal chemical candidates would therefore have activity in both our primary yeast and secondary neuronal toxicity assays, as well as in mouse models. They will be valuable tools for dissecting diverse protein homeostasis pathologies and could potentially become the focus for future pre-clinical development. For this luminescence assay, inhibition of A-beta rescues the toxic effect in the yeast cell, resulting in increase of signals and the desired phenotype of "Activator". This screen is run against the Molecular Libraries Small Molecule Repository (MLSMR) and the NCGC Sytravon Library Collection.
NIH Chemical Genomics Center [NCGC]
NIH Molecular Libraries Probe Centers Network [MLPCN]
Assay Submitter (PI): Susan Lindquist, Whitehead Institute, Massachusetts Institute of Technology
[1] Vassar R,et al (1999). Beta-secretase cleavage of Alzheimer's amyloid precursor protein by the transmembrane aspartic protease BACE. Science. 286: 735-741.
[2] Yan R, et al (1999). Membrane-anchored aspartyl protease with Alzheimer's disease beta-secretase activity. Nature. 402: 533-536.
Two and a half microliter / well of yeast growth medium were dispensed in a 1536 assay plate. Compounds were pinned using the Kalypsys robotic system followed by addition of 2.5 uL / well yeast solution. The assay plates were incubated at 30 C. After 48 hr, the absorbance signal at 600 nm was obtained using the PerkinElmer ViewLux plate reader to assess yeast growth. The data was normalized to the positive control of an equimolar mixture of ferric chloride (FeCl3) and clioquinol and to the negative control DMSO.
Potency means the concentration at half of the fitted maximal effect; tags describe the fitted curve by direction and shape.

SMILES	Potency	growth rescue
Cc1cc(S(=O)(=O)N(Cc2ccc(C(C)C)cc2)CC2CCCO2)ccc1-n1cnnn1 (centres undefined)	inconclusive [activator, full curve, poor fit]	
Cc1ccc(S(=O)(=O)N2[C@@H](c3cccc(Cl)c3)C(C(=O)O)=CC[C@H]2c2ccc3c(c2)OCO3)cc1	inactive	
Cc1c(C(=O)N2CCN(C(c3ccccc3)c3ccccc3)CC2)oc2ccccc12	inconclusive [activator, single point]	
C#CCOCCOCCOCCNc1nc(N2CCN(C(=O)CCCCCCCCCCNC(=O)[C@H]([C@@H](C)CC)n3cc(CCCCCN)nn3)CC2)nc(N2CCN(C(=O)CCCCCCCCCCNC(=O)[C@@H]([C@H](C)O)n3cc(C)nn3)CC2)n1	inactive	
COc1ccccc1NC(=O)Cc1csc(NC(=S)Nc2ccccc2)n1	inconclusive [activator, full curve, poor fit]	
Clc1ccc(-c2noc3ncnc(NC4CCCCC4)c23)cc1	inactive	
COc1ccc(-c2cc3nc(C)c(CCC(=O)NCCc4ccc(Cl)cc4)c(C)n3n2)c(OC)c1	inactive	
Cc1c(C(=O)NCCC2=CCCCC2)cccc1[N+](=O)[O-]	inconclusive [activator, partial curve, poor fit]	
CCN(Cc1ccccc1)S(=O)(=O)c1ccc2c(c1)NC(=O)CS2	inconclusive [activator, partial curve, poor fit]	
COc1ccc(C(=O)C(=O)N2CCC(Cc3ccccc3)CC2)cc1OC	inactive	
Cc1ccc(CC2C(=O)N(c3cc(C)ccc3C)C(=O)C2C)cc1 (centres undefined)	inconclusive [activator, full curve, poor fit]	
COc1ccc(NC(=O)Cn2cc(C(=O)c3ccccc3OC)c(=O)c3ccc(C)nc32)cc1OC	inactive	
CN(C)/C=C1\N=C(c2ccc(Cl)cc2Cl)OC1=O		inconclusive: 28.4% [activator]
CCOc1ccc(C2C(C(=O)Nc3ccccc3C)=C(C)Nc3nnnn32)cc1 (centres undefined)	inactive	
CSc1ncc(CN2CCCC(C(=O)c3ccc(C(C)(C)C)cc3)C2)cn1 (centres undefined)	inactive	
CC(C)c1ccc(S(=O)(=O)N2CCN(Cc3cccc(F)c3)CC2)cc1	inconclusive [activator, single point]	
O=C(c1ccc2c(c1)N(Cc1ccc(Cl)cc1)C(=O)c1ccccc1S2(=O)=O)N1CCCC1	inactive	
O=C(COC(=O)c1ccccc1Br)Nc1ccc(F)cc1	inactive	
CCN1C(=O)c2ccccc2S(=O)(=O)c2ccc(C(=O)NCc3ccccc3)cc21	inactive	
